The record followed here is publication PMC9574860, “Chemical Toolkit for PARK7: Potent, Selective, and High-Throughput” (Journal of Medicinal Chemistry, 2022).

SMILES strings stand for the structures. The campaign covered roughly 7,900 compounds. About 400 (5.1%) showed an effect of 50% or more. The list shows a part of the results.

The assay deals with Parkinson's disease protein 7 (PARK7/DJ1) (human, UniProt Q99497). As to the kind of experiment: primary screen, percent inhibition; read as competition with a fluorescent probe by fluorescence polarization; higher = more effect of the substance. The note with it: 100 µM. A digest of the protocol: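 Covalent fragments at 100 μM final were incubated 2 h with 0.2 μM PARK7, then 20 nM probe JYQ-107 added for a further 2 h. Fluorescence polarization read at 480/520 nm; relative FP loss versus reference controls gave remaining enzyme activity.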
Parkinson's disease protein 7 (PARK7/DJ1), sequence (Q99497 whole entry, looked up, the tested form may be a part): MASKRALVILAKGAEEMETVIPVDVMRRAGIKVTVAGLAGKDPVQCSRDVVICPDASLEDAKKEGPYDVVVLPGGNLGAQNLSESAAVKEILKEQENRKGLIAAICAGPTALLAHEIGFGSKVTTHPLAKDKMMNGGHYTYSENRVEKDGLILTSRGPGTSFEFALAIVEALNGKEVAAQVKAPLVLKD
As to `C=CC(=O)NCCC1CCN(C(C)=O)CC1`, the Inhibition % was 5.39%. With `C=CC(=O)Nc1ccc2sncc2c1` the figure was 97.4%. With `O=S(=O)(F)CCSc1nc2ccccc2o1` the figure was 70.3%; with `CC1(C)CN(C(=O)c2cccnc2S)CCS1(=O)=O`, 4.61%.

With `CC(=O)Nc1ccc(OC(=O)N(C)C)cc1`, the Inhibition % amounted to 10.8%. With `CC1CC(N2CCN(c3cccc(Cl)c3)CC2)C(=O)O1` (stereo not drawn) the figure was 4.34%; with `COCCC(Cl)c1ccccc1` (stereo not drawn), 8.31%; with `C=CC(=O)N(c1cccc2cccnc12)C1CCC1`, 13.1%. Consider `O=C(CCl)Nc1nnc(C2CC2)o1`, for which the Inhibition % was determined as 2.41%. With `CN(Cc1ccc(Br)cc1)C(=O)CCl` the figure was 52.8%; with `COC[C@@H]1C[C@H](OC)CN1C(=O)c1c[nH]c(C#N)c1`, 1.56%. With `C=CC(=O)NCCc1ccc(-n2cccn2)cc1` the figure was 5.22%. The same measure for `CC(C)CNc1oc(-c2ccccc2)nc1C#N`: 4.63%.

Regarding `Cl.O=C(CCl)N1CCN(C2CCS(=O)(=O)C2)CC1` (stereo not drawn), the Inhibition % stood at 11.4%. The same measure for `CSc1cccc(C#N)n1`: 8.62%; for `CN1CCN(C(=O)CN2CCSC2=O)CC1`: 10.4%; for `Cc1cc(C(=O)CCl)c(C)n1C1CCS(=O)(=O)C1` (stereo not drawn): 35.7%. With `C=CC(=O)NCc1nc2ccccc2s1` the figure was -0.0503%; with `CC1(C)OB(c2ccc3ccoc3c2Cl)OC1(C)C`, 5.49%; with `C=CC(=O)N1CC(c2ccccc2)(C(C)C)C1`, 4%. With `N#Cc1cc(O)ncn1` the figure was 8.87%. Take `CN(CC(=O)Nc1c(Cl)cccc1Cl)C(=O)CCl`: the Inhibition % is recorded as 7.36%. With `C=CC(=O)N1CCc2cc(F)ccc2C1` the figure was 10.6%; with `O=C(CCl)Nc1cc(Cl)ccc1C(=O)O`, 47.9%; with `C=CC(=O)Nc1ccccn1`, 3.17%. The same measure for `C=CC(=O)Nc1cc(C)nn1C1CC2CCC1C2` (stereo not drawn): 6.66%; for `C=CC(=O)N[C@@H]1C=C[C@H](CO)C1`: 8.28%; for `C1COC(COCC2CO2)C1` (stereo not drawn): 10.2%. With `C=CC(=O)N1CC(C)Cc2cc(OC)c(OC)cc2C1C` (stereo not drawn) the figure was 6.08%; with `N#CC(=Cc1ccc(O)c(O)c1)c1ccccn1`, 3.18%. As to `C=CC(=O)N1CCOC(c2ccnn2C)C1` (stereo not drawn), the Inhibition % amounted to 3.67%. With `N#Cc1nc(NCCc2nccs2)ccc1Cl` the figure was 5.62%; with `C=CC(=O)NCC(=O)N1CCCc2ccccc21`, 5.12%. With `Cn1cc(CNS(=O)(=O)C=Cc2ccc(Cl)cc2)cn1` the figure was 7.5%. With `C=CC(=O)NC1(c2cccc(F)c2)CCOCC1` the figure was 10.3%. Turning to `CCCC(=O)NCC1CCCN(c2ccnc(C#N)c2)C1` (stereo not drawn), the Inhibition % turned out to be 15.2%. The same measure for `C=CC(=O)N1CCOC(Cn2nc(C)cc2C)C1` (stereo not drawn): 14.2%. As for `CC(C)OCCn1cnc(C#N)n1`, the Inhibition % is 2.25%. The same measure for `C=CC(=O)NCc1ccc(CN2CCCCCC2)cc1`: 13.2%. With `C=CC(=O)Nc1ccc2c(c1)CCNC2=O`, the Inhibition % was determined as 11.8%. Consider `C=CC(=O)NC1C2Cc3ccccc3C21` (stereo not drawn), for which the Inhibition % came to 11.1%.

Take `C=CC(=O)NC1CCC(C)(N2CCC2)CC1` (stereo not drawn): the Inhibition % is reported as 12.2%.

Regarding `C=CC(=O)N1CCC2(C1)CC2(F)F` (stereo not drawn), the Inhibition % amounted to 5.02%. With `O=C(O)C1CCN(C(=O)C=Cc2ccc(Cl)s2)CC1` the figure was 6.86%; with `C=CC(=O)N1CCC(Oc2ccc(C(=O)O)cc2)CC1`, 2.71%. The same measure for `CCOc1cc(S(=O)(=O)n2nc(C)cc2C)ccc1Cl`: -1.43%; for `C=CC(=O)N1CCC(NC(=O)c2cc(C)on2)CC1`: 7.51%. The same measure for `C=CC(=O)N1CCN(CC)C(=O)C1(C)C`: 2.96%; for `C=CC(=O)NC1CCCN(c2ccc(F)cc2C)C1` (stereo not drawn): 6.65%. With `CC(=O)Nc1ccc(S(=O)(=O)n2cnc(C)c2)cc1`, the Inhibition % was 8.75%.

In the case of `CC1(C)OB(Cc2cccc(C#N)c2)OC1(C)C`, the Inhibition % was determined as 6.42%.

For `Cc1cncc(B2OC(C)(C)C(C)(C)O2)c1`, the Inhibition % was -0.814%. With `CCCc1ccc(C(=O)Cn2cnc(C#N)n2)cc1` the figure was 5.82%. As to `Cn1cc(C=CC(=O)N2CCOCC2)c(=O)n(C)c1=O`, the Inhibition % was -4.33%. As to `C=CC(=O)N[C@@H]1CC=CC[C@H]1C(F)(F)F` (racemic), the Inhibition % worked out at 7.37%. The same measure for `COc1ccc(Oc2ccc(C#N)nc2)cc1`: 7.28%; for `O=C(CCl)NNC(=O)c1ccc([N+](=O)[O-])cc1`: 6.49%; for `C=CC(=O)NC1CCS(=O)(=O)c2ccccc21` (stereo not drawn): 16%. The same measure for `Cc1ccc2cc(C=C(C#N)C(N)=O)c(N(C)C)nc2c1`: 7.3%. With `COc1ccc(N2CCC2=O)cc1` the figure was 4.44%; with `O=C1OCCC1N1C(=O)c2ccccc2S1(=O)=O` (stereo not drawn), 6.02%. In the case of `C=CC(=O)N1Cc2cccnc2C1`, the Inhibition % is 6.55%. For `Cc1csc(-n2c(C)cc(C(=O)CCl)c2C)n1`, the Inhibition % worked out at 51%. The same measure for `O=C(CN1C(=O)CCC1=O)Nc1ccc(Cl)cc1Cl`: -4.28%; for `C=CC(=O)NC(=O)NCc1ccccc1`: 10.3%. With `C=CC(=O)NC(c1ccc(F)cc1)c1cnn(C)c1` (stereo not drawn) the figure was 7.71%; with `C=CC(=O)N(CC)C1CCCCC1C` (stereo not drawn), 15.8%; with `CC(C1CC1)N(CC(F)(F)F)C(=O)CCl` (stereo not drawn), 6.2%. As for `CC1(C)OB(c2cccc(F)c2C#N)OC1(C)C`, the Inhibition % stood at 3.89%.

Turning to `N#Cc1cccc(N2C[C@@H](C(F)(F)F)[C@H](C(N)=O)C2)n1`, the Inhibition % is given as 3.22%.

For `C=CC(=O)N1CCCCC1c1ccc(CC)o1` (stereo not drawn), the Inhibition % stood at 17.6%. The same measure for `O=c1c2sccc2nc(S)n1CCCN1CCOCC1`: 1.46%; for `Cc1ccc(Nc2cccc(C#N)n2)nc1`: 3.72%.

For `CNC(=O)C(C)(C)CNC(=O)c1cccnc1S`, the Inhibition % is 7.07%. The same measure for `O=S(=O)(F)c1ccc(-n2cccc2)cc1`: 6.46%; for `O=C(CCl)Nc1ccc(Cl)cn1`: 11.3%. On to `C=CC(=O)Nc1ccc(OC)cc1[N+](=O)[O-]`, for which the Inhibition % came to 4.38%. On to `COc1ccc(C(=O)NC(=O)CCl)cc1`, for which the Inhibition % turned out to be 44.6%.
